Experimental data from PubChem BioAssay AID1508624 (National Center for Advancing Translational Sciences (NCATS), 2021).
The campaign covered roughly 48,000 compounds. About 120 (0.25%) were called active. About 4% were inconclusive and are not listed. Calls follow the shape of the dose curve; as a rule, active = well fitted activation curve with a large enough effect; inconclusive = small, poorly fitted or top-dose-only effect, or another doubt; inactive = no such curve, though single readings can be large or run the other way. The list shows a part of the results.

assay: Primary qHTS for Identification of Small Molecule Activators of Huntingtin-Antisense Promoter Activity; conditions: HEK293 HTT-AS promoter firefly luciferase reporter (activity 0% = vehicle and -100% = no light), 24 h; series mostly up to 57.5 µM; activity change, positive = activation: at the top concentration; also: nearly all actives have a fitted effect of over 55% in size
How it was run: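 HEK293 cells carrying firefly luciferase reporters were seeded at 2,500 per well in Opti-MEM and cultured for 24 h. They were then treated with compounds at up to 57.5 uM final for 24 h at 37 degrees C before Dual-Glo luminescence readout.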

Activity change, positive = activation, inactive:
COc1cccc(NC(=O)C2CCCN2S(=O)(=O)c2ccc3c(c2)n(C)c(=O)c(=O)n3C)c1 (stereo unspecified) -12.6%, COc1ccc(OC)c(NC(=O)c2nc(SCc3ccccc3F)ncc2Cl)c1 -1.61%, O=C(Cn1c(=O)oc2cc(S(=O)(=O)NCc3ccccc3)ccc21)N(CCO)Cc1ccccc1 -17.8%, Cc1nc2c(C(=O)NCCC(C)C)cnn2c(C)c1Cc1c(F)cccc1Cl 9.25%, COc1ccc2c(c1)c1c(c(=O)n(-c3ccc(C)cc3)c(=O)n1CC(=O)Nc1cc(C)ccc1C)n2C -14.9%, CCC(C)NC(=O)C1CCN(S(=O)(=O)c2ccc3c(ccn3CC)c2)CC1 (stereo unspecified) -13.7%, COc1cccc2sc(N(Cc3cccnc3)C(=O)c3ccc(S(=O)(=O)N(C)C)cc3)nc12 -3.78%, O=C(O)c1ccccc1NC(=O)N1c2ccccc2Sc2ccccc21 -12.5%, CCOC(=O)C1CCCN(C(=O)C2CCN(S(=O)(=O)c3c(C)noc3/C=C/c3ccc(C)cc3)CC2)C1 (stereo unspecified) -28.4%, COc1ccccc1CNC(=O)c1cc2cc(S(=O)(=O)N3CCCCC3)ccc2n1C -31.8%, CC1CCCN(Cc2c(O)ccc3c(=O)c(-c4ccc(Cl)cc4)c(C(F)(F)F)oc23)C1 (stereo unspecified) -6.31%, COc1cc2c(cc1OC)C(c1cc(OC)c(O)c(OC)c1)CC(=O)N2 (stereo unspecified) 0.0744%, Cc1ccc(-c2c(C)n3c4c(=O)n(C)c(=O)n(C)c4nc3n2CCCO)cc1 -61.8%, O=C(CSc1nc2c([nH]c3ccccc32)c(=O)n1-c1ccccc1)Nc1ccccc1F -25.6%, O=C(CCn1cnnn1)Nc1ccccc1 -3.39%, COc1ccc(C(=O)Nc2cccc(-c3nc4cccnc4s3)c2C)c(OC)c1 -11.1%, CCOC(=O)c1ccccc1NC(=O)Cn1c(=O)n(Cc2ccc(C(=O)NCc3ccc4c(c3)OCO4)cc2)c(=O)c2ccccc21 -2.08%, CCOc1ccc(NC(=O)C2CCCN(S(=O)(=O)c3ccc(Br)s3)C2)cc1 (stereo unspecified) -9.24%, Cc1cccc(C(=O)NC(=O)Nc2ccc(-n3nc(C(F)(F)F)cc3C(F)(F)F)cc2)c1 -11.6%, COCCCNC(=O)C1CCN(c2ncnc3c2nc2n3CCCCC2)CC1 -8.68%, CCOc1cc(Br)c(C2C(C(=O)OC)=C(C)NC3=C2C(=O)c2ccccc23)cc1OCC (stereo unspecified) -23.4%, Cc1c2cnn(CC(=O)NCc3ccc(F)cc3)c(=O)c2c(C)n1Cc1ccccc1Cl -21.6%, COc1ccc(-c2nc(C)c(CCNC(=O)c3ccccc3Br)s2)cc1OC 7.76%, COc1cccc(Cn2cnc3c2c(=O)n(C)c(=O)n3C)c1 -51%, CC(=O)N1CCCc2cc(S(=O)(=O)N3CCC(N(C)C(C)C)CC3)ccc21 -4.57%, COC(=O)c1ccccc1NC(=O)N(Cc1ccc(C)cc1)Cc1cccn1-c1nnc(N2CCCC2=O)s1 -13.7%
